These results are taken from the supplement of paper PMC4604168 (melanoma cell lines).

Some of the results follow. Repeats are few or missing, and single values can be far off.
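Note: cells treated in 1,536-well plates, then fixed and DAPI-stained, with nuclei counted from automated high-throughput microscope images.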

For the assay, the system named is A2058. Briefly: cell count relative to DMSO control; melanoma cells; higher = more viable cells. The conditions noted are these: library dose: standard library concentration; 72 h.
Molecule `O=C(Nc1cc(C(F)(F)F)cc(C(F)(F)F)c1)c1cc(Cl)ccc1O` + COc1cc2c(Oc3ccc4[nH]c(C)cc4c3F)ncnc2cc1OCCCN1CCCC1 [cediranib] (first compound 0.08 µM, partner dose 2 µM) registered a cell count of 88.1%.

The molecule `Cn1nnc2c(C(N)=O)ncn2c1=O` [temozolomide] + OCCn1cc(-c2cnc3nnn(Cc4ccc5ncccc5c4)c3n2)cn1 [PF04217903] (first compound 10 µM, partner dose 5 µM) yielded a cell count of 64.5%.

On to `O=C(O)[C@@H]1[O][Sb](=[O])([O][Sb]2(=[O])[O][C@H]([C@H](O)CO)[C@H](O)[C@H](C(=O)O)[O]2)[O][C@H]([C@H](O)CO)[C@@H]1O` (stereo partly drawn) [stibogluconate] + CN(C)S(=O)(=O)c1ccc2c(c1)/C(=C/c1cc3c([nH]1)CCCC3)C(=O)N2 [SU6656] (first compound 10 µM, partner dose 2 µM), for which the cell count turned out to be 46.6%.

In turn, `O=C(O)[C@@H]1[O][Sb](=[O])([O][Sb]2(=[O])[O][C@H]([C@H](O)CO)[C@H](O)[C@H](C(=O)O)[O]2)[O][C@H]([C@H](O)CO)[C@@H]1O` (stereo partly drawn) [stibogluconate] + C=CCn1c(=O)c2cnc(Nc3ccc(N4CCN(C)CC4)cc3)nc2n1-c1cccc(C(C)(C)O)n1 [MK1775] (first compound 10 µM, partner dose 0.1 µM) displayed a cell count of 79%.

Molecule `O=C(Nc1cc(C(F)(F)F)cc(C(F)(F)F)c1)c1cc(Cl)ccc1O` + Cn1cnc2c(F)c(Nc3ccc(Br)cc3Cl)c(C(=O)NOCCO)cc21 [selumetinib] (first compound 0.08 µM, partner dose 0.075 µM) gave a cell count of 98.5%.

In turn, `O=C(O)[C@@H]1[O][Sb](=[O])([O][Sb]2(=[O])[O][C@H]([C@H](O)CO)[C@H](O)[C@H](C(=O)O)[O]2)[O][C@H]([C@H](O)CO)[C@@H]1O` (stereo partly drawn) [stibogluconate] + Cn1cncc1[C@@](N)(c1ccc(Cl)cc1)c1ccc2c(c1)c(-c1cccc(Cl)c1)cc(=O)n2C [tipifarnib] (first compound 10 µM, partner dose 0.05 µM) yielded a cell count of 97.2%.

In the case of `O=C(Nc1cc(C(F)(F)F)cc(C(F)(F)F)c1)c1cc(Cl)ccc1O` + CC(=O)c1c(C)c2cnc(Nc3ccc(N4CCNCC4)cn3)nc2n(C2CCCC2)c1=O [palbociclib] (first compound 0.08 µM, partner dose 0.2 µM), the cell count was 98.3%.

With `O=C(O)[C@@H]1[O][Sb](=[O])([O][Sb]2(=[O])[O][C@H]([C@H](O)CO)[C@H](O)[C@H](C(=O)O)[O]2)[O][C@H]([C@H](O)CO)[C@@H]1O` (stereo partly drawn) [stibogluconate] + COCC[n+]1c2c(n(Cc3cnccn3)c1C)C(=O)c1ccccc1C2=O [YM155] (first compound 10 µM, partner dose 0.002 µM), the cell count was 27.6%.
